The text below walks through data of PubChem BioAssay AID1645887 (National Center for Advancing Translational Sciences (NCATS), 2021).

Several values for one entry are separate records, joined by “and”; a condition that tells them apart may be missing. Equal entries are not always repeated. About 40 (0.2%) of roughly 16,000 compounds were called active. Inconclusive results (about 1%) are left out. The call rests on the fitted dose curve; in most records, active means well fitted activation curve with a large enough effect; inconclusive means small, poorly fitted or top-dose-only effect, or another doubt; inactive means no such curve, though single readings can be large or run the other way. The list shows a part of the results. Non-standard residues stand in square brackets, D forms with d. Residues, ends and D or L forms follow the SMILES beside them. Nle = CCCC[C@H](N)C(=O)O
On the % scale 0 is the no-effect control and ±100 the full control effect.

For the assay, the target named is Rap guanine nucleotide exchange factor 4 (Homo sapiens) (UniProt Q8WZA2). As to the kind of experiment: Validation qHTS for agonist of cAMP-regulated guanine nucleotide exchange factor 4 (EPAC2).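 Further: exchange makes BODIPY-GDP fluorescence drop when released from Rap1B; series mostly up to about 150 µM.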 The note with it: EPAC2 Rap1B BODIPY-GDP exchange, fluorescence; activation: hits give high values. An outline of the steps: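 Fluorescent exchange assay: 100 nM EPAC2 with 250 nM RAP1B-BODIPY-GDP and 50 uM GDP; compound added, 5 min at room temperature, then read (ex 480/em 540 nm) every 5 min for 30 min. Normalized to 6.5 mM cAMP agonist control.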
Chain of UniProt Q8WZA2 (Q8WZA2 whole entry, looked up): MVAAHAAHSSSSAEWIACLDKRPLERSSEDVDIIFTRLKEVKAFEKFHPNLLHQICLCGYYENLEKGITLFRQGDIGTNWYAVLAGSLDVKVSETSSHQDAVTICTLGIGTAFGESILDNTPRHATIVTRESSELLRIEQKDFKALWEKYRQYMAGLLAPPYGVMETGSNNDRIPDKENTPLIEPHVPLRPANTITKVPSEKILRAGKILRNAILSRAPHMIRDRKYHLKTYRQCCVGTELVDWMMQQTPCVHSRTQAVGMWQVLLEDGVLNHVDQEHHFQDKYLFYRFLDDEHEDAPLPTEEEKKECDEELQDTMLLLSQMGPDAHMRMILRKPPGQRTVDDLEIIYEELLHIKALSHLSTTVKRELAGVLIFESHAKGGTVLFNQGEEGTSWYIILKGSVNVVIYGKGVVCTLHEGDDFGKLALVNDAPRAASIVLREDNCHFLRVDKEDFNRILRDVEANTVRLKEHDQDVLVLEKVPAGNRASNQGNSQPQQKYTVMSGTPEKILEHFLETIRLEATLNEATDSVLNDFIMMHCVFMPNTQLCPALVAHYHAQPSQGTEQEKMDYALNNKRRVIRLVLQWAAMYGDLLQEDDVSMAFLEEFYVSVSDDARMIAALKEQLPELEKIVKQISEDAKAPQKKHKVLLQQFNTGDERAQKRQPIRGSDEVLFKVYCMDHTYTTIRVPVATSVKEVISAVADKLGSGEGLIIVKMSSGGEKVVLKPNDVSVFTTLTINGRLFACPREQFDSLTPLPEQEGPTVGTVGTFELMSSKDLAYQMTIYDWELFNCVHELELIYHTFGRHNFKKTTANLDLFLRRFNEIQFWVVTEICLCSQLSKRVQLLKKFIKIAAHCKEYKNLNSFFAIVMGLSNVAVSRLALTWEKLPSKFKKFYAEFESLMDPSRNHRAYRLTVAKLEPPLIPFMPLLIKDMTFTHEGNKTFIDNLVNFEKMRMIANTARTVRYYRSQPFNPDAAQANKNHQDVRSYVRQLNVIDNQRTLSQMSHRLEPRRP
For the molecule `CCS(=O)(=O)NCc1c(C)ncc2c1CCN(C(=O)c1ccc(F)cc1)C2`, the activation was inactive: 4.04%.

In the case of `Nc1ncnc2n[nH]c(Nc3ccc(F)cc3)c12`, the activation was inactive: -19.6%.

As to `CCCCCCCCCCCCC(=O)N1CCCC[C@H]1CNC(=O)[C@@H](N)CCCCN`, the activation was inactive: -28.5%.

For the molecule `CC(C)C[C@@H](CSc1ccccc1)N1CCN(CC(C)C)CCC1=O`, the activation is inactive: -12.9%.

Consider `O=c1c(-c2ccc(Cl)cc2)nc2cnc(N3CCOCC3)nc2n1C[C@H]1CCCO1`, for which the activation is inactive: 4.27%.

Take `CC(=O)OCC(=O)[C@]1(O)C(C)CC2C3CCC4=CC(=O)C=C[C@@]4(C)[C@]3(F)C(O)C[C@@]21C` (stereo not given in full): the activation is inactive: 3.85%.

For `Cc1c(C)n(Cc2ccccc2)c2ccc(C(=O)OCCN(C)C)cc12`, the activation is inactive: 3.34%.

For the molecule `CC(=O)N1CCC2(CCCN(Cc3nccs3)C2)CC1`, the activation was inactive: -2.94%.

As to `CCC(C(=O)NC(N)=O)c1ccccc1` (stereo not given), the activation is inactive: -4.88%.

On to `COc1ccccc1-c1nc(Nc2ccncc2)c2ccccc2n1`, for which the activation was inactive: -26.6%.

With `COC(=O)c1c(OCc2ccccn2)cc(=O)n2c1CCN(Cc1ccc3c(c1)CCCN3C)CC2`, the activation was inactive: -12.3%.

Consider `O=C(c1ccncc1)N1CCC2(CC1)CCN(c1ccccn1)CC2`, for which the activation is inactive: -18.9%.

Take `c1ccc(CN(CC2=NCCN2)c2ccccc2)cc1`: the activation was inactive: 3.37% and inactive: -19.3% and inactive: -10.4%.

For `CC1CCC(=O)N(CCC#N)CC1` (stereo not given), the activation is inactive: -27%.

In the case of `CCN(c1nc(N)c(C(=O)N=C(N)N)nc1Cl)C(C)C`, the activation was inactive: -19.5%.

As for `O=C1NC(CC(=O)N2CCC(n3c(C4CCC4)nc4cccnc43)CC2)c2ccccc21` (stereo not given), the activation is inactive: -8.07%.

For `Clc1ccc(N2CCN(Cc3cc4ccccn4n3)CC2)cc1`, the activation was inactive: -13.5%.

As to `O=C(O)C1=CCCN(CCON=C(c2ccccc2)c2ccccc2)C1`, the activation was inactive: -5.62% and inactive: 5.47% and inactive: -53.4%.

Regarding `Cn1c(=O)c(-c2ccc(Cl)cc2)nc2cnc(N3CCOCC3)nc21`, the activation is inactive: -9.57%.

Turning to `COCCn1c(=O)c(-c2ccc(F)cc2)nc2cnc(N3CCOCC3)nc21`, the activation is inactive: -9.18%.

On to `O=P(O)(O)OP(=O)(O)OP(=O)(O)O`, for which the activation is inactive: -8.51%.

For `CN(C)CC/C=C1/c2ccccc2COc2ccc(CC(=O)O)cc21`, the activation was inactive: -8.04%.

`O=C(c1cnccn1)N1CCC2(CC1)CCN(c1ccncc1)CC2`: the activation was inactive: -0.326%.

Regarding `CC(C)(C)[C@H]1CCC(=O)N([C@H](CSc2ccc(Br)cc2)Cc2ccccc2)CC1`, the activation was inactive: -8.77%.

On to `CCC(=O)OC1CCC2C3CCc4cc(O)ccc4C3CC[C@]12C` (stereo not given in full), for which the activation was inactive: -8.28%.

As for `CCCC[C@@H](C=O)NC(=O)[C@H](CC(C)C)NC(=O)[C@H](CC(C)C)NC(C)=O` (Ac-Leu-Leu-[Nle]-aldehyde), the activation was inactive: 7.05%.

As for `COc1cc(OC)c2c(=O)c(-c3ccc4c(c3)OCO4)coc2c1`, the activation was inactive: -7.12%.

As for `Cc1oc(-c2ccccc2NC(=O)c2ccccn2)nc1CNC(=O)c1ccc(Oc2ccccc2)o1`, the activation is inactive: -21.1%.

`O=c1[nH]cnc2c1ncn2C1OC(CO)C(O)C1O` (stereo not given): the activation was inactive: 9.84% and inactive: -19.4%.

For the molecule `CC(=O)N1CCC2(CC1)CN(c1ccncc1)C2`, the activation is inactive: -20.8%.

For the molecule `CN(Cc1cnc2nc(N)nc(N)c2n1)c1ccc(C(=O)N[C@@H](CCC(=O)O)C(=O)O)cc1`, the activation was inactive: -13.1% and inactive: 0.252% and inactive: -11.3%.

Take `Cc1cnc(SCc2ccccn2)nc1C1CCCN(C(=O)c2cccc(-c3cccc(F)c3)c2)C1` (stereo not given): the activation was inactive: 13.2%.

For `O=C(COc1ccc(Cl)cc1)N1CCN(Cc2ccc3c(c2)OCO3)CC1`, the activation was inactive: -4.09%.

Take `N[C@@H](Cc1ccc(O)cc1)C(=O)O`: the activation was inactive: 2.4%.

Consider `CNC(C)CCC=C(C)C` (stereo not given), for which the activation was inactive: 0.211%.

For `CCOc1ccc2nc3cc(N)ccc3c(N)c2c1`, the activation is inactive: -1.31% and inactive: 10.5%.

Consider `O=c1c(O)c(-c2ccc(O)c(O)c2)oc2ccccc12`, for which the activation was inactive: -11.8%.

In the case of `CCN(CC)CCNc1ccc(CO)c2sc3ccccc3c(=O)c12`, the activation was inactive: -6.8%.

Turning to `CC(=O)C1CCC2C3CC(C)C4=CC(=O)CC[C@@]4(C)C3C(O)C[C@@]12C` (stereo not given in full), the activation was inactive: -4.88%.

`CC(=O)OC[C@H]1O[C@@](COC(C)=O)(O[C@H]2O[C@H](COC(C)=O)[C@@H](OC(C)=O)[C@H](OC(C)=O)[C@H]2OC(C)=O)[C@@H](OC(C)=O)[C@@H]1OC(C)=O`: the activation is inactive: -9.28%.

With `O=c1c(CCc2ccccc2)nc2cnc(Oc3ccccc3)nc2n1C[C@H]1CCCO1`, the activation was inactive: -7.84%.

Turning to `CCCCCCCCCC(=O)NC(CN1CCOCC1)[C@H](O)c1ccccc1` (stereo not given in full), the activation was inactive: -88.2%.

Take `Cc1ccc(SC[C@H](C)CN2CC[C@H](C)CCC2=O)cc1`: the activation was inactive: -18.1%.

`COc1ccccc1CN1CC[C@@]2(CCCN(S(=O)(=O)c3ccccc3)C2)C1`: the activation is inactive: -11.6%.

On to `COc1ccc(-c2cn(CCc3c[nH]c4ccccc34)nn2)cc1`, for which the activation was inactive: -30.2%.

As for `CCc1noc(C)c1C(=O)N1CCOc2ccc(CN3CCCC(C(=O)c4cccnc4)C3)cc2C1` (stereo not given), the activation is inactive: -0.865%.

Take `Cc1ccsc1/C=C/C1=NCCCN1C`: the activation was inactive: -3.35% and inactive: -0.108%.

For the molecule `CCCCCCCCCCCCCCCCOP(=O)([O-])OCC[N+](C)(C)C`, the activation was inactive: -33.6%.

As for `Cc1cc(NS(=O)(=O)c2ccc(N)cc2)nc(C)n1`, the activation is inactive: -9.96%.

As for `CN1CCN(c2ncc3nc(-c4ccc(Cl)cc4)c(=O)n(Cc4cccs4)c3n2)CC1`, the activation was inactive: -1.85%.

For the molecule `CC(Cc1ccc(O)c(O)c1)(NN)C(=O)O` (stereo not given), the activation was inactive: -8.8%.

In the case of `CCCn1c(=O)[nH]c2nc(-c3ccc(S(=O)(=O)O)cc3)[nH]c2c1=O`, the activation was inactive: -10.8%.

Take `O=c1cnc2cnc(Nc3ccccc3)nc2n1Cc1cccs1`: the activation is inactive: 6.89%.

Consider `C[N+](C)(C)CCOC(=O)CCC(=O)OCC[N+](C)(C)C`, for which the activation is inactive: -21.8% and inactive: -17.3%.

Take `Cc1ccccc1-c1nc(N(C)Cc2ccco2)c2ccccc2n1`: the activation is inactive: 10.8%.

Consider `C=CC1=C(C(=O)O)N2C(=O)[C@@H](NC(=O)/C(=N\O)c3csc(N)n3)[C@H]2SC1` (stereo in doubt), for which the activation is inactive: -21.4% and inactive: -10.5%.

With `Cc1oc(-c2cccc(NC(=O)c3ccccc3)c2)nc1CNC(=O)c1cnc2ccccn2c1=O`, the activation was inactive: -14.2%.

As to `CCN1CCc2nc(N)oc2CC1`, the activation was inactive: 1.41% and inactive: -23.5%.

As to `O=C(c1cccc(F)c1)N1CCC2(CCN(Cc3ccccc3)CC2)CC1`, the activation is inactive: -8.74%.

With `CCCCCCCCCCCCCC[N+](C)(C)C`, the activation was inactive: -17.2%.

For the molecule `COCC(=O)N1CCC2(CC1)CCN(c1ncccn1)CC2`, the activation was inactive: -4.16%.

On to `COCC(=O)N1CCC2(CC1)CCN(C(=O)Nc1cccc(F)c1)CC2`, for which the activation is inactive: -18.6%.

Turning to `C=CCn1c(=O)c2c(nc(-c3ccc(S(=O)(=O)O)cc3)n2C)n(C)c1=O`, the activation is inactive: -1.76% and inactive: -6.26%.

Regarding `CCCCN1CC[C@H]2C=CC[C@@H](C(=O)NCc3ccc(OC)cc3)[C@H]2C1=O`, the activation was inactive: -30.5%.

`O=C(c1cc2ccccc2o1)N1CCN(Cc2ccccc2)CC1`: the activation is inactive: 3.11%.

On to `C[C@]12CC[C@@H]3c4ccc(OS(=O)(=O)O)cc4CC[C@H]3[C@@H]1CCC2=O`, for which the activation is inactive: 1.95%.

In the case of `O=c1c(-c2cccc(Cl)c2)nc2cncnc2n1-c1ccccc1`, the activation is inactive: -1.08%.

On to `CS(=O)(=O)Nc1cccc(-c2ccc3ncnc(N4CCOCC4)c3c2)c1`, for which the activation is inactive: -15.1%.

For `CCC1CN(CCNC(=O)c2cccnc2C)Cc2cc(OC)ccc2O1` (stereo not given), the activation was inactive: -5.31%.

On to `CSc1ccc2cc(CNCc3ccccc3F)c(N3CCCC(CO)C3)nc2c1` (stereo not given), for which the activation is inactive: -6.09%.

As for `Cc1cnc2c(C)cccc2c1C`, the activation was inactive: -3.47%.

Take `COc1ccc(Oc2ncc3nc(C)c(=O)n(-c4ccccc4)c3n2)cc1`: the activation is inactive: -8.57%.

Take `COc1cc(N)c(N)cc1OC`: the activation was inactive: -7.59%.

Regarding `Cc1ncc2c(c1CNC(=O)c1ccc3c(c1)OCO3)CCN(C(=O)c1cccc(-n3cccn3)c1)C2`, the activation was inactive: 4.82%.

Take `CNC1CCC(c2ccc(Cl)c(Cl)c2)c2ccccc21` (stereo not given): the activation was inactive: -16.6%.

As for `COCCn1c(=O)c(-c2ccc(OC)cc2)nc2cnc(Nc3ccccc3)nc21`, the activation was inactive: -9.08%.

Consider `COc1cccc(OC)c1C(=O)N[C@@H]1C(=O)N2[C@@H]1SC(C)(C)[C@@H]2C(=O)O`, for which the activation is inactive: 4.83%.

Regarding `O=C(c1cnccn1)N1CCC2(CCCN(Cc3nccs3)C2)CC1`, the activation was inactive: -11.3%.

Take `COc1cc2c(CCNC(C)=O)c[nH]c2cc1Cl`: the activation was inactive: -12.1% and inactive: 5.11% and inactive: -17.2%.

In the case of `CC1Cc2ccccc2C[N+]1(C)CC(=O)c1cccc([N+](=O)[O-])c1` (stereo not given), the activation was inactive: -28.7%.

Consider `N#CCCN1CCC(NC(=O)OCc2ccccc2)CCC1=O` (stereo not given), for which the activation was inactive: 7.82%.

As to `CO/N=C(/C(=O)NC1C(=O)N2C(C(=O)O)=C(CSc3nc(=O)c(O)nn3C)CSC12)c1csc(N)n1` (stereo not given), the activation is inactive: -20.6%.

With `COc1ccc(C(=O)N2CCC[C@@]3(CCN(Cc4ccncc4)C3)C2)cc1`, the activation is inactive: -7.74%.

For `COc1ccc(-c2nc3cnc(N4CCNCC4)nc3n(C)c2=O)cc1`, the activation is inactive: -9.26%.

As to `O=C(CN1Cc2ccccc2OC(c2ccccc2)C1)N1CCCCC1c1cccnc1` (stereo not given), the activation was inactive: 5.71%.
